Test results from ChEMBL document CHEMBL4888484, “Replenishing the malaria drug discovery pipeline: Screening and hit evaluation of the MMV Hit Generation Library 1 (HGL1) against asexual blood stage Plasmodium falciparum ,using a nano luciferase reporter read-out” (2022).
Values joined by “and” are separate entries in the source; they are usually repeats but may differ in a detail not shown here. Identical values can stand only once. Hit rate of the full screen: of about 150,000 compounds, about 540 (0.36%) showed an effect of 50% or more. Some of the results follow.

System: Plasmodium falciparum
Assay: Primary screen in NF54 nanoGlo assay, in single point, at 2uM, 72h; a lower Z score goes with more inhibition
Assay type: functional, Erythrocyte
Settings: timepoint 72 hour

SMILES | % Inhibition [%] | Z score | % Inhibition (2 µM) | Z score (2 µM)
Cc1ccc(C)c(NC(=O)c2ccccc2OC[C@H]2CCCO2)c1 | -9 | 1 |  | 
NC(=O)CCn1ccc(NC(=O)[C@H]2CCCOC2)n1 | -13 | 1.78 |  | 
Cc1cc(=O)c2c(n1Cc1ccccc1)CC(C)(C)CC2=O | -6 | 1.13 |  | 
Cc1nnc(CC(=O)N2CCCNC(=O)[C@@H]2CC(C)C)o1 | -4 | 0.46 |  | 
COc1cc(=O)n(Cc2cn3cccnc3n2)cc1Br | -14 | 1.38 |  | 
Cc1nc(Cn2nnc(NC(=O)c3ccsc3)c2C)no1 | -9 | 1.07 |  | 
CNC[C@H]1CCN(C(=O)c2sc3cc(C(F)(F)F)ccc3c2Cl)C1 | 5 | -0.65 |  | 
O=C1CCC(c2ccccc2)(c2ccccc2)CN1C[C@H]1CCS(=O)(=O)C1 | -10 | 1.98 |  | 
CCN(CCN1CCCC1)S(=O)(=O)Cc1cccc(C)c1 | -3 | 0.65 |  | 
CCn1cc(Br)c(CNC)n1 | -30 | 3.56 |  | 
O=C(CN1C(=O)NC2(CCCC2)C1=O)c1cc2ccccc2o1 | -1 | 0.13 |  | 
CN(Cc1ccc(N2CCCC2)cc1)C(=O)C1CCN(c2cnc3nccnc3c2)CC1 | -4 | 0.68 |  | 
COc1ccc(NC(=O)c2ccc(N[C@@H](C)C(=O)N3CCCC3)cc2)cc1 | 4 | -0.79 |  | 
Brc1ccc(-c2nc3n(n2)CCCCC3)cc1 | 30 | -3.83 |  | 
Cn1cccc1C(=O)N1CCOc2ccc(C(=O)N3CCCC3)cc2C1 | -3 | 0.41 |  | 
COc1ccccc1NC(=O)N1CCCn2nc(C)cc21 | -10 | 1.29 |  | 
c1ccn2ncc(-c3ccc4c(c3)OCCO4)c2c1 | 0 | -0.04 |  | 
CCN(CC)S(=O)(=O)N[C@H](c1cnn(C)c1)C1CC(O)C1 (stereo partly drawn) | 7 | -0.85 |  | 
CC[C@@H]1NC(=O)c2ccc(OC)c(c2)OCCCn2cc(nn2)CNC(=O)[C@H](Cc2ccccc2)NC1=O | -6 | 1.05 |  | 
Cc1cccc(-c2ncc(C(=O)NCCN3CCOC3=O)c(O)n2)c1 | 2 | -0.29 |  | 
COc1cc(CNC(C)C)cc(Br)c1OCC#N |  |  | -4% and -3% | 0.43 and 0.41
CN1CCC(CNC(=O)Nc2ccc3c(c2)N(C)CC3)(N2CCCCC2)CC1 | -17 | 1.54 |  | 
O=c1cnc2cc(Br)cnc2[nH]1 | -8 | 1.27 |  | 
CN([C@@]1(C#N)CCOC1)S(=O)(=O)c1cccc2nsnc12 | -8 | 0.68 |  | 
